# ± gives the standard deviation of the averaged measurements. The list shows a part of the results.
# Tested on: PfAP2-EXP AP2 domain (GST-tagged)
# Assay: gcPBM binding intensity (ln(normalized median fluorescence intensity)); higher = stronger DNA binding
# Method in brief: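 The highest Masliner-normalised natural-log median intensity across replicate spots of either probe orientation is reported as binding intensity. GST-tagged P. falciparum DNA-binding domains expressed in E. coli were applied for 1 h to an Agilent 4 × 180k array of primer-extended double-stranded 36-bp intergenic genomic probes plus negative controls, and bound protein was detected with Alexa488 anti-GST antibody and scanned at 488 nm.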
row,Sequence,gcPBM binding intensity (ln)
1,TAGGAAAATTACAAAAGTACTTGGCACATAATAATG [XGTACX_site6005],8.75 ± 0.38
2,AAAAAAAAAAAATACACACAAACACAAATTAAATAA [CACACA_site3809],8.6 ± 0.62
3,ATTATAGAATATTGAAGTACAAAATTTAAAATAAGT [XGTACX_site1468],8.75 ± 0.2
4,ACATAATATACTATTGTGCACATATATATATATATA [GTGCAC_site9761],10.1 ± 0.45
5,GTTAATTTAATTATATGTACGAAAAAATACGTTATA [XGTACX_site1306],8.46 ± 0.28
6,TTTTTATTTTTTTATTTCTTATCAAATAAAATATAT [XGTACX_negctrl_site537],8.32 ± 0.36
7,TTACAAAAAGGTAATTTACACACTGCATATAGGAAT [CACACA_site8956],8.87 ± 0.36
8,TCTTAATATGGTAATACACACTAATATACTTTTGTT [CACACA_site4969],8.55 ± 0.31
9,ACCCTTCAATTTAATTGTACAAGAAAAAAAAAAAAA [XGTACX_site2927],8.54 ± 0.54
10,AAATAATCATAAAATAAACACACATATATAAATATA [CACACA_site7981],8.52 ± 0.44
11,TGCTCAAACTTTACAAATGAACGAATATAAAAAAAG [CACACA_negctrl_site541],8.82 ± 0.59
12,ATTCTTTTTTTTTTCTTATATTCTAATCACCACCTT [XGTACX_negctrl_site179],8.72 ± 0.56
13,TAAAATTAAATGAAATCATTATTCATTTTTATTTTA [CACACA_negctrl_site1281],7.68 ± 0.4
14,CATATAAATAAACACACACACACATATATATATATA [CACACA_site5309],10.2 ± 0.29
15,AATAGGTGCCTTTTTTCACACACATGTCAACTAAAT [CACACA_site8846],8.84 ± 0.28
16,TTTGGTAAGCGTGTCGCATGTAGAACAAGTCTACAT [TGCATGCA_site577],8.52 ± 0.42
17,ATGAAATTATTATATAAACACACATTTATTTTATTT [CACACA_site8597],8.17 ± 0.3
18,TAAATACAGACATACACACATACACCCACATATATA [CACACA_site547],8.7 ± 0.5
19,AGGAACATTTACGCCCCACACACCTACCAACAAAAA [CACACA_site3827],9.11 ± 0.64

row,Sequence,gcPBM binding intensity (ln)
1,ATTAAAATGGAGTATTAATATGATATATATATATAT [GTGCAC_negctrl_site509],10 ± 0.31
2,TATATATATATTTTTGGTACAGATATTTTCTTCTCT [XGTACX_site4432],9.65 ± 0.18
3,AATATATATATATATTGTACACACATTTATGCATAT [XGTACX_site6856],8.9 ± 0.29
4,TTACAACCATAAAATGCATGTAAATGACAAAAAAAA [TGCATGCA_site944],8.81 ± 0.3
5,TAAATTAAATATTATAAACACACATATATATTATTT [CACACA_site8189],8.28 ± 0.47
6,TTAAAAAATTATTGTAGTACATAGGAAATGAAAAAA [XGTACX_site155],8.83 ± 0.14
7,AAAAAAAAAAAATGAGCACACATAAATAAAAACAAA [CACACA_site8447],8.7 ± 0.48
8,TATATACATAAAATTTGTACATATATATATATATAT [XGTACX_site3214],10.1 ± 0.51
9,ATATAAATAAATACAACACACATGTCATATCTAAAT [CACACA_site7533],8.38 ± 0.42
10,ATATTATTCTTATATTCACACAGTTTATATTTCCGT [CACACA_site5653],8.85 ± 0.45
11,AAATTACATACACGCGCACACACAAAAAAAAAAAAA [CACACA_site1335],8.61 ± 0.45
12,ATATTATAGTATATAACACACATTTTTCATAACACT [CACACA_site6331],8.46 ± 0.29
13,TATATAATTAAAATAACACACATATATAAAAATATA [CACACA_site2990],8.52 ± 0.36
14,TGGCAAAATAGGCACACACACATATACATATATATT [CACACA_site1059],8.54 ± 0.53
15,GTATATATATTTCTTTAATAATTAAATTATAAATAT [CACACA_negctrl_site640],8.47 ± 0.4
16,TATTATATCTTATATGTATATTCCCACAAATTATAT [GTGCAC_negctrl_site362],8.47 ± 0.4
17,AATATATAAACACGTACACACACATATATGTATATA [CACACA_site9168],8.73 ± 0.43
18,AATTTAAATATTTGTTGTACGTATTTATATATTCTT [XGTACX_site3623],8.72 ± 0.4
19,CATGCCGTTAAATTATGTACTTATTATTTTAATATG [XGTACX_site4209],8.47 ± 0.36

row,Sequence,gcPBM binding intensity (ln)
1,ATAATATATAAACACACACACATATATAAATACATT [CACACA_site4466],8.57 ± 0.63
2,AACAATTATTTGTCGACACACGTATATGTTATTTAG [CACACA_site5046],8.89 ± 0.4
3,TATTTATATTCCTTTACACACTCCATCTTATATCCA [CACACA_site3604],8.89 ± 0.55
4,ATTTTTGTTATTACATGTACCCATAATTATTATTAA [XGTACX_site3558],9.22 ± 0.44
5,ACCGTGGGAGGACACACACACACACCCACATATATA [CACACA_site4339],8.54 ± 0.4
6,ACAAAAAAATGAAAAGAAAAAGATATACCCCAATAT [CACACA_negctrl_site509],8.99 ± 0.8
7,ATATCCATAATAAAAACATGCAACAGAAAAAAAAAA [TGCATGCA_site497],8.9 ± 0.14
8,AAGAGAAATATATATTGTACAATAATTTTATTTGGT [XGTACX_site7642],8.45 ± 0.2
9,TATATATTAATATTTACACACATGCGCACCCATAAA [CACACA_site2410],9.75 ± 0.85
10,TTCCAAAAAATTATTACACACATATGAGCACATATA [CACACA_site4543],8.32 ± 0.41
11,TACGGTTGTTTATTTTGTACGTAAAAAATATATTAT [XGTACX_site8393],9.04
12,TATTAATTAAAAAAATGTACATAATTATAAATTTTT [XGTACX_site7994],8.37 ± 0.35
13,TAATATACATATATATGTACATATATATATATATAT [XGTACX_site2684],9.93 ± 0.35
14,AAGGGTTATTTGATATGTACTTATATATATATATAA [XGTACX_site1659],8.53 ± 0.41
15,AAGGTGGAAACAATTACACACACACTAATAAAAAAA [CACACA_site9051],8.71 ± 0.53
16,TTTTTTAAAAGAAAATAAAAAATAAGCATAATATGA [CACACA_negctrl_site1574],8.51 ± 0.48
17,AAGTACAAATTTAATAAAAATGAAACAAATATGTAT [TGCATGCA_negctrl_site94],8.47 ± 0.43
18,ATGGAATTTTTAGAATATGGATAATGTTACTTAAGT [CACACA_negctrl_site494],8.36 ± 0.46

# — the supplement of paper PMC11417369
